This note sets out measurements from the supplement of paper PMC4604168 (melanoma cell lines).

The list shows a part of the results. Most values come without repeats; read them as rough.
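Further: cell number obtained by counting DAPI-stained nuclei in high-throughput microscope images with image analysis software, screen run in 1,536-well plates.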

The subject of the first experiment is COLO829. Briefly: cell count relative to DMSO control; melanoma cells; higher = more viable cells. The note with it: library dose: low library concentration; 72 h.
Turning to `CC[C@]1(O)C[C@H]2CN(CCc3c([nH]c4ccccc34)[C@@](C(=O)OC)(c3cc4c(cc3OC)N(C=O)[C@H]3[C@@](O)(C(=O)OC)[C@H](OC(C)=O)[C@]5(CC)C=CCN6CC[C@]43[C@@H]65)C2)C1` [vincristine] + NC(=O)Nc1cc(-c2cccc(F)c2)sc1C(=O)N[C@H]1CCCNC1 [AZD7762] (first compound 0.0001 µM, partner dose 0.02 µM), the cell count was 92.5%.

For the compound `Cc1cc(Nc2cc(N3CCN(C)CC3)nc(Sc3ccc(NC(=O)C4CC4)cc3)n2)n[nH]1` [Tozasertib] + O=C1NC(=O)/C(=C/c2ccc(-c3ccc(F)cc3O)o2)S1 [AS252424] (first compound 0.006 µM, partner dose 1 µM), the cell count amounted to 100%.

With `CC[C@]1(O)C[C@H]2CN(CCc3c([nH]c4ccccc34)[C@@](C(=O)OC)(c3cc4c(cc3OC)N(C=O)[C@H]3[C@@](O)(C(=O)OC)[C@H](OC(C)=O)[C@]5(CC)C=CCN6CC[C@]43[C@@H]65)C2)C1` [vincristine] + Cc1cc(N2CCOCC2)cc2[nH]c(-c3c(NC[C@@H](O)c4cccc(Cl)c4)cc[nH]c3=O)nc12 [BMS536924] (first compound 0.0001 µM, partner dose 0.2 µM), the cell count turned out to be 88.2%.

On to `CC[C@]1(O)C[C@H]2CN(CCc3c([nH]c4ccccc34)[C@@](C(=O)OC)(c3cc4c(cc3OC)N(C=O)[C@H]3[C@@](O)(C(=O)OC)[C@H](OC(C)=O)[C@]5(CC)C=CCN6CC[C@]43[C@@H]65)C2)C1` [vincristine] + NCC(=O)Nc1ccc(-n2nc(C(F)(F)F)cc2-c2ccc3c(ccc4ccccc43)c2)cc1 [OSU03012] (first compound 0.0001 µM, partner dose 1 µM), for which the cell count worked out at 87.6%.

`Cc1cc(Nc2cc(N3CCN(C)CC3)nc(Sc3ccc(NC(=O)C4CC4)cc3)n2)n[nH]1` [Tozasertib] + Oc1nc(-c2ccc(C(F)(F)F)cc2)nc2c1CSCC2 [XAV939] (first compound 0.006 µM, partner dose 2 µM) yielded a cell count of 86.3%.

As to `CC[C@]1(O)C[C@H]2CN(CCc3c([nH]c4ccccc34)[C@@](C(=O)OC)(c3cc4c(cc3OC)N(C=O)[C@H]3[C@@](O)(C(=O)OC)[C@H](OC(C)=O)[C@]5(CC)C=CCN6CC[C@]43[C@@H]65)C2)C1` [vincristine] + COC(=O)c1sccc1S(=O)(=O)Nc1ccc(Nc2ccccc2)cc1OC [GSK0660] (first compound 0.0001 µM, partner dose 1 µM), the cell count came out at 14.8%.

In the case of `Cc1cc(Nc2cc(N3CCN(C)CC3)nc(Sc3ccc(NC(=O)C4CC4)cc3)n2)n[nH]1` [Tozasertib] + N#Cc1c(O)c2c(-c3ccc(-c4ccccc4O)cc3)csc2[nH]c1=O [A769662] (first compound 0.006 µM, partner dose 2 µM), the cell count worked out at 97.2%.

The subject of the next experiment is G361. The description is as above. The note with it: library dose: low library concentration; 72 h.
Consider `N#CC[C@H](C1CCCC1)n1cc(-c2ncnc3[nH]ccc23)cn1` [ruxolitinib] + CCc1ccc(CCOc2ccc(CC3SC(=O)NC3=O)cc2)nc1 [pioglitazone] (first compound 1 µM, partner dose 2 µM), for which the cell count was found to be 92%.

Compound `CC[C@]1(O)C[C@H]2CN(CCc3c([nH]c4ccccc34)[C@@](C(=O)OC)(c3cc4c(cc3OC)N(C=O)[C@H]3[C@@](O)(C(=O)OC)[C@H](OC(C)=O)[C@]5(CC)C=CCN6CC[C@]43[C@@H]65)C2)C1` [vincristine] + COc1cc2c(Oc3ccc4[nH]c(C)cc4c3F)ncnc2cc1OCCCN1CCCC1 [cediranib] (first compound 0.0001 µM, partner dose 0.4 µM) returned a cell count of 109%.

As to `Cc1cc(Nc2cc(N3CCN(C)CC3)nc(Sc3ccc(NC(=O)C4CC4)cc3)n2)n[nH]1` [Tozasertib] + CC1(C)NC(=O)N(c2ccc([N+](=O)[O-])c(C(F)(F)F)c2)C1=O [nilutamide] (first compound 0.006 µM, partner dose 1 µM), the cell count is 112%.

For the compound `N#CC[C@H](C1CCCC1)n1cc(-c2ncnc3[nH]ccc23)cn1` [ruxolitinib] + COc1ccc(COc2ccc(Cc3cnc(N)nc3N)cc2OC)cc1 [GW2580] (first compound 1 µM, partner dose 1 µM), the cell count was 94.4%.

`N#CC[C@H](C1CCCC1)n1cc(-c2ncnc3[nH]ccc23)cn1` [ruxolitinib] + OCCn1cc(-c2cnc3nnn(Cc4ccc5ncccc5c4)c3n2)cn1 [PF04217903] (first compound 1 µM, partner dose 1 µM) registered a cell count of 101%.

Turning to `N#CC[C@H](C1CCCC1)n1cc(-c2ncnc3[nH]ccc23)cn1` [ruxolitinib] + NCC(=O)Nc1ccc(-n2nc(C(F)(F)F)cc2-c2ccc3c(ccc4ccccc43)c2)cc1 [OSU03012] (first compound 1 µM, partner dose 1 µM), the cell count amounted to 105%.

`N#CC[C@H](C1CCCC1)n1cc(-c2ncnc3[nH]ccc23)cn1` [ruxolitinib] + O=C(O)c1ccc(-c2c[nH]c3ncc(-c4ccccc4)cc23)cc1C1CCCC1 [GSK650394] (first compound 1 µM, partner dose 0.16 µM): the cell count came out at 104%.

Consider `N#CC[C@H](C1CCCC1)n1cc(-c2ncnc3[nH]ccc23)cn1` [ruxolitinib] + N#Cc1c(O)c2c(-c3ccc(-c4ccccc4O)cc3)csc2[nH]c1=O [A769662] (first compound 1 µM, partner dose 2 µM), for which the cell count was 105%.

Consider `N#CC[C@H](C1CCCC1)n1cc(-c2ncnc3[nH]ccc23)cn1` [ruxolitinib] + CN(C)S(=O)(=O)c1ccc2c(c1)/C(=C/c1cc3c([nH]1)CCCC3)C(=O)N2 [SU6656] (first compound 1 µM, partner dose 0.4 µM), for which the cell count turned out to be 84.8%.

In the case of `Cc1cc(Nc2cc(N3CCN(C)CC3)nc(Sc3ccc(NC(=O)C4CC4)cc3)n2)n[nH]1` [Tozasertib] + Cc1cc(N2CCOCC2)cc2[nH]c(-c3c(NC[C@@H](O)c4cccc(Cl)c4)cc[nH]c3=O)nc12 [BMS536924] (first compound 0.006 µM, partner dose 0.2 µM), the cell count was found to be 89.8%.

Regarding `Cc1cc(Nc2cc(N3CCN(C)CC3)nc(Sc3ccc(NC(=O)C4CC4)cc3)n2)n[nH]1` [Tozasertib] + COc1ccc2c(c1)CCC1C2CCC2(C)C(NCCCCCCN3C(=O)C=CC3=O)CCC12 [U73122] (first compound 0.006 µM, partner dose 0.4 µM), the cell count was 98.6%.

For the compound `CC[C@]1(O)C[C@H]2CN(CCc3c([nH]c4ccccc34)[C@@](C(=O)OC)(c3cc4c(cc3OC)N(C=O)[C@H]3[C@@](O)(C(=O)OC)[C@H](OC(C)=O)[C@]5(CC)C=CCN6CC[C@]43[C@@H]65)C2)C1` [vincristine] + O=C1NC(=O)/C(=C/c2ccc(-c3ccc(F)cc3O)o2)S1 [AS252424] (first compound 0.0001 µM, partner dose 1 µM), the cell count is 102%.

Compound `Cc1cc(Nc2cc(N3CCN(C)CC3)nc(Sc3ccc(NC(=O)C4CC4)cc3)n2)n[nH]1` [Tozasertib] + O=C(Nc1ccccc1)c1cc([N+](=O)[O-])ccc1Cl [GW9662] (first compound 0.006 µM, partner dose 2 µM) showed a cell count of 108%.

On to `N#CC[C@H](C1CCCC1)n1cc(-c2ncnc3[nH]ccc23)cn1` [ruxolitinib] + C=CCn1c(=O)c2cnc(Nc3ccc(N4CCN(C)CC4)cc3)nc2n1-c1cccc(C(C)(C)O)n1 [MK1775] (first compound 1 µM, partner dose 0.02 µM), for which the cell count was 89.9%.

In the case of `CC[C@]1(O)C[C@H]2CN(CCc3c([nH]c4ccccc34)[C@@](C(=O)OC)(c3cc4c(cc3OC)N(C=O)[C@H]3[C@@](O)(C(=O)OC)[C@H](OC(C)=O)[C@]5(CC)C=CCN6CC[C@]43[C@@H]65)C2)C1` [vincristine] + C[C@@H]1CCN(C(=O)CC#N)C[C@@H]1N(C)c1ncnc2[nH]ccc12 [CP690550] (first compound 0.0001 µM, partner dose 1 µM), the cell count was 84.8%.

`N#CC[C@H](C1CCCC1)n1cc(-c2ncnc3[nH]ccc23)cn1` [ruxolitinib] + O=C1NC(=O)/C(=C/c2ccc(-c3ccc(F)cc3O)o2)S1 [AS252424] (first compound 1 µM, partner dose 1 µM) displayed a cell count of 90.3%.

`CC[C@]1(O)C[C@H]2CN(CCc3c([nH]c4ccccc34)[C@@](C(=O)OC)(c3cc4c(cc3OC)N(C=O)[C@H]3[C@@](O)(C(=O)OC)[C@H](OC(C)=O)[C@]5(CC)C=CCN6CC[C@]43[C@@H]65)C2)C1` [vincristine] + COc1ccc(-c2ccc3c(N4CCOCC4)nc(N4C[C@@H](C)O[C@@H](C)C4)nc3n2)cc1CO [KU0063794] (first compound 0.0001 µM, partner dose 0.02 µM): the cell count was found to be 98.8%.

Turning to `N#CC[C@H](C1CCCC1)n1cc(-c2ncnc3[nH]ccc23)cn1` [ruxolitinib] + CCN(CC)CCCCNc1ncc2cc(-c3cc(OC)cc(OC)c3)c(NC(=O)NC(C)(C)C)nc2n1 [PD173074] (first compound 1 µM, partner dose 0.1 µM), the cell count was 94%.

With `N#CC[C@H](C1CCCC1)n1cc(-c2ncnc3[nH]ccc23)cn1` [ruxolitinib] + O=C(Nc1cccc(Cl)c1)Nc1ncc(CCNc2ncnc3ccsc23)s1 [SNS314] (first compound 1 µM, partner dose 0.0008 µM), the cell count came out at 92.1%.

`N#CC[C@H](C1CCCC1)n1cc(-c2ncnc3[nH]ccc23)cn1` [ruxolitinib] + NC(=O)Nc1cc(-c2cccc(F)c2)sc1C(=O)N[C@H]1CCCNC1 [AZD7762] (first compound 1 µM, partner dose 0.02 µM) yielded a cell count of 112%.
